Assay [1] deals with T1, RNF220 (RING finger protein 220), wild type, expressed in HEK293 cells (UniProt Q6PDX6).
T1 sequence: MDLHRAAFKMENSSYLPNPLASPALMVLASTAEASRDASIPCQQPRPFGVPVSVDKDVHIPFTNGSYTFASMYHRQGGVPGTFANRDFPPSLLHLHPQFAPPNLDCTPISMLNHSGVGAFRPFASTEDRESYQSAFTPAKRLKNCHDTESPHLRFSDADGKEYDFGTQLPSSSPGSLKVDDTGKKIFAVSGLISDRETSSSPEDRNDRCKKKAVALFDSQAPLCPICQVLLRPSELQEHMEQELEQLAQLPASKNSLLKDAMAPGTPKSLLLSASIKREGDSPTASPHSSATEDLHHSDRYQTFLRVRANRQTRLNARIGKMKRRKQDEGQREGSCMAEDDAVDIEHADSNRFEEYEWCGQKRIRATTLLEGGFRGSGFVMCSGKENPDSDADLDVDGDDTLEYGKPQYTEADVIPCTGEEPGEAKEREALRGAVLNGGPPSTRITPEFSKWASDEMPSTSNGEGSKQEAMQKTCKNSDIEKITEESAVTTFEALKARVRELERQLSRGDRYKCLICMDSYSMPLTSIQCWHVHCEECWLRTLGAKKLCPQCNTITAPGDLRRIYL
The experiment in a line: co-IP; reverse in vitro co-IP of RNF220 and the Olig proteins (the other partner precipitated than in a1).

For assay [2], the target named is T2, Olig1, expressed in HEK293 cells (mouse) (UniProt Q9JKN5).
T2 sequence: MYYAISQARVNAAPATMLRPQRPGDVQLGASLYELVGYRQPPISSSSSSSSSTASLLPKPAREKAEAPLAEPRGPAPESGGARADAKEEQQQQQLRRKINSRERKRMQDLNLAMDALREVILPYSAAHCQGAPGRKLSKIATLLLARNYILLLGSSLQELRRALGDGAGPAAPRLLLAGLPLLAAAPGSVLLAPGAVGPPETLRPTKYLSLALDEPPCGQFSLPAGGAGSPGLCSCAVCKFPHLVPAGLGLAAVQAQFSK
Nature of the assay: co-IP; WT RNF220 or the mutants R363Q and R365Q with Olig1 or Olig2; cells not stated for this panel.

The target in assay [3] is T3, Olig2, expressed in HEK293 cells (mouse) (UniProt Q9EQW6).
T3 sequence: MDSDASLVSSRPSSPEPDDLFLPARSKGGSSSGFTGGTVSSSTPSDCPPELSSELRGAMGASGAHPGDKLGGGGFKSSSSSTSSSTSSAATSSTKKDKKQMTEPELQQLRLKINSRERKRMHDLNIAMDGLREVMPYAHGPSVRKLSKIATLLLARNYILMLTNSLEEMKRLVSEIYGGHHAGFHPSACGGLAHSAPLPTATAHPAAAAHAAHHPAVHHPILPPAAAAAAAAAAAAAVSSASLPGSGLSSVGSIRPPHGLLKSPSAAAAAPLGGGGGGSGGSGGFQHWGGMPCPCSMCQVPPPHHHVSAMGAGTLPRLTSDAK
Described as above.

The target of assay [4] is T4, endogenous Olig1 of mouse forebrain (mouse (endogenous in forebrain)) (UniProt Q9JKN5).
T4 sequence: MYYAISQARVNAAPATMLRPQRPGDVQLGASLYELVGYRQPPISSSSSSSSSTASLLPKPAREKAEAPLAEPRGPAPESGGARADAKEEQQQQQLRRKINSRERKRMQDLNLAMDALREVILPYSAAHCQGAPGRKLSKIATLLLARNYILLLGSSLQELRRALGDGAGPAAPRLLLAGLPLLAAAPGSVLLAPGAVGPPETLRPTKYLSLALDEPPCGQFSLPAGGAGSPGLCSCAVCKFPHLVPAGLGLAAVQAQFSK
The experiment in a line: co-IP; endogenous proteins in forebrain lysates of P7 mice, with the indicated antibodies, IgG as control.

Assay [5] addresses T5, endogenous Olig2 of mouse forebrain (mouse (endogenous in forebrain)) (UniProt Q9EQW6).
T5 sequence: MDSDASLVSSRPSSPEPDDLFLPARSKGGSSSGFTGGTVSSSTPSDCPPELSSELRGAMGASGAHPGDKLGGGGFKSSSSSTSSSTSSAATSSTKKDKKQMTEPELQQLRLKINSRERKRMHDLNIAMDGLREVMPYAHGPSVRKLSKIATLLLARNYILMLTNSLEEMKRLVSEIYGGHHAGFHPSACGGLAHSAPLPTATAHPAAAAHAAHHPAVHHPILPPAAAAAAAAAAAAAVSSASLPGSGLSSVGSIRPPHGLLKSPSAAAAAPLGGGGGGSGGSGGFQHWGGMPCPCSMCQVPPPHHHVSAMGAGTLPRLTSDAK
The assay is described as above.

For 4 molecules, binding results are on record in publication PMC10849602.

These are yes or no findings as the source states them, for the method shown. In cells and extracts the contact can be indirect. Some entries that bind do so weakly or less than the wild type.

B1: Olig1, expressed in HEK293 cells (protein, UniProt Q9JKN5 1-260)
chain: MYYAISQARVNAAPATMLRPQRPGDVQLGASLYELVGYRQPPISSSSSSSSSTASLLPKPAREKAEAPLAEPRGPAPESGGARADAKEEQQQQQLRRKINSRERKRMQDLNLAMDALREVILPYSAAHCQGAPGRKLSKIATLLLARNYILLLGSSLQELRRALGDGAGPAAPRLLLAGLPLLAAAPGSVLLAPGAVGPPETLRPTKYLSLALDEPPCGQFSLPAGGAGSPGLCSCAVCKFPHLVPAGLGLAAVQAQFSK
Consider B1, for which the binding result in assay [1] is “binds”.

B2: RNF220^R365Q, leukodystrophy-related missense mutant (enzyme, UniProt Q6PDX6 1-566)
chain: MDLHRAAFKMENSSYLPNPLASPALMVLASTAEASRDASIPCQQPRPFGVPVSVDKDVHIPFTNGSYTFASMYHRQGGVPGTFANRDFPPSLLHLHPQFAPPNLDCTPISMLNHSGVGAFRPFASTEDRESYQSAFTPAKRLKNCHDTESPHLRFSDADGKEYDFGTQLPSSSPGSLKVDDTGKKIFAVSGLISDRETSSSPEDRNDRCKKKAVALFDSQAPLCPICQVLLRPSELQEHMEQELEQLAQLPASKNSLLKDAMAPGTPKSLLLSASIKREGDSPTASPHSSATEDLHHSDRYQTFLRVRANRQTRLNARIGKMKRRKQDEGQREGSCMAEDDAVDIEHADSNRFEEYEWCGQKRIQATTLLEGGFRGSGFVMCSGKENPDSDADLDVDGDDTLEYGKPQYTEADVIPCTGEEPGEAKEREALRGAVLNGGPPSTRITPEFSKWASDEMPSTSNGEGSKQEAMQKTCKNSDIEKITEESAVTTFEALKARVRELERQLSRGDRYKCLICMDSYSMPLTSIQCWHVHCEECWLRTLGAKKLCPQCNTITAPGDLRRIYL
In the case of B2, the binding result in assay [2] and in assay [3] was “binds” each time.

B3: RNF220^R363Q, leukodystrophy-related missense mutant (enzyme, UniProt Q6PDX6 1-566)
chain: MDLHRAAFKMENSSYLPNPLASPALMVLASTAEASRDASIPCQQPRPFGVPVSVDKDVHIPFTNGSYTFASMYHRQGGVPGTFANRDFPPSLLHLHPQFAPPNLDCTPISMLNHSGVGAFRPFASTEDRESYQSAFTPAKRLKNCHDTESPHLRFSDADGKEYDFGTQLPSSSPGSLKVDDTGKKIFAVSGLISDRETSSSPEDRNDRCKKKAVALFDSQAPLCPICQVLLRPSELQEHMEQELEQLAQLPASKNSLLKDAMAPGTPKSLLLSASIKREGDSPTASPHSSATEDLHHSDRYQTFLRVRANRQTRLNARIGKMKRRKQDEGQREGSCMAEDDAVDIEHADSNRFEEYEWCGQKQIRATTLLEGGFRGSGFVMCSGKENPDSDADLDVDGDDTLEYGKPQYTEADVIPCTGEEPGEAKEREALRGAVLNGGPPSTRITPEFSKWASDEMPSTSNGEGSKQEAMQKTCKNSDIEKITEESAVTTFEALKARVRELERQLSRGDRYKCLICMDSYSMPLTSIQCWHVHCEECWLRTLGAKKLCPQCNTITAPGDLRRIYL
B3: the binding entry in assay [2] and in assay [3] was “binds” in each case.

B4: endogenous RNF220 of mouse forebrain (enzyme, UniProt Q6PDX6 1-566)
chain: MDLHRAAFKMENSSYLPNPLASPALMVLASTAEASRDASIPCQQPRPFGVPVSVDKDVHIPFTNGSYTFASMYHRQGGVPGTFANRDFPPSLLHLHPQFAPPNLDCTPISMLNHSGVGAFRPFASTEDRESYQSAFTPAKRLKNCHDTESPHLRFSDADGKEYDFGTQLPSSSPGSLKVDDTGKKIFAVSGLISDRETSSSPEDRNDRCKKKAVALFDSQAPLCPICQVLLRPSELQEHMEQELEQLAQLPASKNSLLKDAMAPGTPKSLLLSASIKREGDSPTASPHSSATEDLHHSDRYQTFLRVRANRQTRLNARIGKMKRRKQDEGQREGSCMAEDDAVDIEHADSNRFEEYEWCGQKRIRATTLLEGGFRGSGFVMCSGKENPDSDADLDVDGDDTLEYGKPQYTEADVIPCTGEEPGEAKEREALRGAVLNGGPPSTRITPEFSKWASDEMPSTSNGEGSKQEAMQKTCKNSDIEKITEESAVTTFEALKARVRELERQLSRGDRYKCLICMDSYSMPLTSIQCWHVHCEECWLRTLGAKKLCPQCNTITAPGDLRRIYL
As to B4, the binding entry in assay [4] and in assay [5] was “binds” each time.
